Results filed as inconclusive are left out. Some entries of the source have several records that differ or are many. The other results are left out here. The source may hold further records. Results that share an entry differ for a reason that is not stated; some may be repeats, others may stem from another dose, organism or construct than stated.
Test system: mice, P1798 lymphosarcoma sc, survival or tumor weight T/C
Experiment: NCI In Vivo Anticancer Drug Screen. Data for tumor model P1798 Lymphosarcoma (subcutaneous) in unknown mice
Settings: endpoint: mean tumor weight; dose: 0.31 mg/kg/injection; schedule: Q01DX010 (ip); vehicle: other; higher = larger tumour
Procedure: The antitumor activity of compounds was measured in mice bearing transplantable tumors. Survival or tumor size were measured and the results are expressed as the measurement made in the treated group (T) divided by the measurement made in the vehicle treated control group (C). The tumor model used in this assay is P1798 Lymphosarcoma (subcutaneous) in unknown mice

For `CN(Cc1cnc2nc(N)nc(N)c2n1)c1ccc(C(=O)N[C@@H](CCC(=O)O)C(=O)O)cc1`, the T/C was 70 % of control, 73 % of control, 97 % of control.

— PubChem BioAssay AID290 (DTP/NCI, 2004)
